Test results reported in the supplement of paper PMC7125110.
± gives the standard error. Variants at the background level are over-represented here.

B1: glmS ribozyme (parent)
chain: AUAAAAGCGCCAGAACUACAGAAAUGUAGUUGACGAGGAGGAGGUUUAUCGAAUUUUCGGCGGAUGCCUCCAAA

Key:
Conditions in all cases: with glucosamine-6-phosphate
glucosamine-6-phosphate [1] = variants of: B1; experiment: self-cleavage kobs at 40 uM GlcN6P; higher = faster cleavage; RNA array
Summary of the method: (§1)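 Barcoded ribozyme variants were transcribed in situ on sequenced MiSeq chips by E. coli RNA polymerase. At 37 °C, a hybridised Cy3 probe tracked them while glucosamine-6-phosphate (40 μM to 10 mM) in HEPES/KCl/Mg(OAc)2 buffer flowed in and tiles were imaged over ~14 h. Per-tile medians of signals normalised to baseline and to non-cleaving reference variants were fit to one- or two-exponential decays, giving kobs. kcat and KM came from weighted Michaelis–Menten fits across concentrations.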

glucosamine-6-phosphate [2] = variants of: B1; experiment: self-cleavage kobs at 160 uM GlcN6P; higher = faster cleavage; RNA array
Summary of the method: as §1

glucosamine-6-phosphate [3] = variants of: B1; experiment: self-cleavage kobs at 2500 uM GlcN6P; higher = faster cleavage; RNA array
Summary of the method: as §1

glucosamine-6-phosphate [4] = variants of: B1; experiment: self-cleavage kobs at 10000 uM GlcN6P; higher = faster cleavage; RNA array
Summary of the method: as §1

glucosamine-6-phosphate [5] = variants of: B1; experiment: self-cleavage kobs at 640 uM GlcN6P; higher = faster cleavage; RNA array
Summary of the method: as §1

Variant	self-cleavage kobs at 40 uM GlcN6P (glucosamine-6-phosphate [1])	self-cleavage kobs at 160 uM GlcN6P (glucosamine-6-phosphate [2])	self-cleavage kobs at 2500 uM GlcN6P (glucosamine-6-phosphate [3])	self-cleavage kobs at 10000 uM GlcN6P (glucosamine-6-phosphate [4])	self-cleavage kobs at 640 uM GlcN6P (glucosamine-6-phosphate [5])
AUAAAAGCGCCAGAACUACAGAAAUGUAGUUGACGAGGAGGAGGGUUAUCGAAUGUUCGGCGGAUGCCUCCAAA [U45G U55G]	0.000146 ± 1.5e-05 s⁻¹	0.000304 ± 4.5e-05 s⁻¹	–	–	–
AUAAAAGCGCCAGAACUACAGAAAUGUAGUUGACGAGGAGGAGGGUUAUCGAAUUUUCGGCGGAGGCCUCCAAA [U45G U65G]	7.22e-05 ± 2.1e-05 s⁻¹	–	–	–	–
AUAAAAGCGCCAGAACUACAGAAAUGUAGUUGACGAGGAGGAGGUAUAUCGAAUUUUCCGCGGAUGCCUCCAAA [U46A G59C]	< 1e-05 s⁻¹	< 1e-05 s⁻¹	< 1e-05 s⁻¹	< 1e-05 s⁻¹	–
AUAAAAGCGCCAGAACUACAGAAAUGUAGUUGACGAGGAGGAGGUCUAUGGAAUUUUCGGCGGAUGCCUCCAAA [U46C C50G]	< 1e-05 s⁻¹	–	–	–	< 1e-05 s⁻¹
AUAAAAGCGCCAGAACUACAGAAAUGUAGUUGACGAGGAGGAGGUCUAUCGAAUUUUCGGGGGAUGCCUCCAAA [U46C C61G]	< 1e-05 s⁻¹	< 1e-05 s⁻¹	< 1e-05 s⁻¹	–	< 1e-05 s⁻¹
AUAAAAGCGCCAGAACUACAGAAAUGUAGUUGACGAGGAGGAGGGUUAUCGAAUUUUCGGCGAAUGCCUCCAAA [U45G G63A]	< 1e-05 s⁻¹	< 1e-05 s⁻¹	< 1e-05 s⁻¹	< 1e-05 s⁻¹	< 1e-05 s⁻¹
AUAAAAGCGCCAGAACUACAGAAAUGUAGUUGACGAGGAGGAGGGUUAUCAAAUUUGCGGCCGAUCCCUCCAAA [U45G G51A U57G G62C G66C]	< 1e-05 s⁻¹	–	–	< 1e-05 s⁻¹	–
AUAAAAGCGCCAGAACUACAGAAAUGUAGUUGACGAGGAGGAGGUAUAUCGAAUUUUCGGCAGAUGCCUCCAAA [U46A G62A]	< 1e-05 s⁻¹	–	< 1e-05 s⁻¹	–	–
AUAAAAGCGCCAGAACUACAGAAAUGUAGUUGACGAGGAGGAGGUAUAUCGAAUUUUCGGCCGAUGCCUCCAAA [U46A G62C]	< 1e-05 s⁻¹	< 1e-05 s⁻¹	< 1e-05 s⁻¹	< 1e-05 s⁻¹	< 1e-05 s⁻¹
AUAAAAGCGCCAGAACUACAGAAAUGUAGUUGACGAGGAGGAGGGUUAUCGAAUUUUCGGCGGAUGCCUCUAAA [U45G C71U]	0.000147 ± 1.7e-05 s⁻¹	0.000517 ± 8.8e-05 s⁻¹	0.00519 ± 0.00062 s⁻¹	0.00653 ± 0.0008 s⁻¹	0.00152 ± 0.00031 s⁻¹
AUAAAAGCGCCAGAACUACAGAAAUGUAGUUGACGAGGAGGAGGUAUAUCGAAUUUUCGGCGUAUGCCUCCAAA [U46A G63U]	< 1e-05 s⁻¹	< 1e-05 s⁻¹	–	< 1e-05 s⁻¹	< 1e-05 s⁻¹
AUAAAAGCGCCAGAACUACAGAAAUGUAGUUGACGAGGAGGAGGGUUAUCGAAUUUUCUGCGGAUGCCUCCAAA [U45G G59U]	< 1e-05 s⁻¹	–	–	4.05e-05 ± 1.2e-05 s⁻¹	–
